Experimental data from a collection of fitness landscapes (doi:10.1016/j.celrep.2020.107928).
Over roughly 81,000 sequences, “one-hybrid fitness for binding parS DNA” has its median near -0.17; the highest 2% begin near 0.51. This is one part of the list.

B1: Caulobacter ParB omega fusion; a variant is named by its letters at X, in order, B8GW30 (parent)
chain: MESVVVGEPGMSEGRRGLGRGLSALLGEVDAAPAQAPGEQLGGSREAPIEILQRNPDQPRRTFREEDLEDLSNSIREKGVLQPILVRPSPDTAGEYQIVAGERAWRAAQRAGLKTVPIMVRELDDLAVLEIGIIENVQRADLNVLEEALSYKVLMEKFERTQENIAQTIGKSXSHVANXMRLLXLPDEVQSYLVSGELTAXHARAIAAAADPVALAKQIIEGGLSVRETEALARKAPNLSAGKSKGGRPPRVKDTDTQALESDLSSVLGLDVSIDHRGSTGTLTITYATLEQLDDLCNRLTRGI

Variants of: B1
Experiment: one-hybrid fitness for binding parS DNA (scaled: cognate 1, non-cognate 0); higher = stronger binding
Conditions: with parS DNA site
In short: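 Fitness is the rescaled log change in variant-to-wild-type read ratio, measured by Illumina sequencing of plasmids before and after bacterial one-hybrid selection. The scale puts cognate at 1 and non-cognate at 0. Selection of Caulobacter ParB libraries, four specificity codons randomised, took place in E. coli USO with a HIS3 reporter, site 19 bp from the promoter, over 48 hours at 37°C on M9-minus-histidine with 0.1 mM IPTG and 5 mM 3-AT.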

Row | Variant | one-hybrid fitness for binding parS DNA
1 | CTCN | ≤ 0.2
2 | YAST | ≤ 0.2
3 | TLWH | ≤ 0.2
4 | STEF | ≤ 0.2
5 | TAHY | ≤ 0.2
6 | QLTR | ≤ 0.2
7 | YSSP | ≤ 0.2
8 | HCLV | ≤ 0.2
9 | PRMW | ≤ 0.2
10 | PIKW | ≤ 0.2
11 | AMAA | ≤ 0.2
12 | RCGC | 0.97
13 | TSHR | ≤ 0.2
14 | KLSW | ≤ 0.2
15 | RVPQ | ≤ 0.2
16 | RLII | ≤ 0.2
17 | PHRQ | ≤ 0.2
18 | GTNR | ≤ 0.2
19 | LIKR | ≤ 0.2
20 | SFDE | ≤ 0.2
21 | SKGF | ≤ 0.2
22 | SAPC | ≤ 0.2
23 | WLDT | ≤ 0.2
24 | MKSL | ≤ 0.2

Row | Variant | one-hybrid fitness for binding parS DNA
25 | RLEC | 0.947
26 | QINL | ≤ 0.2
27 | QKFK | ≤ 0.2
28 | MKTG | ≤ 0.2
29 | VLTF | ≤ 0.2
30 | PKVY | ≤ 0.2
31 | LYGL | ≤ 0.2
32 | CKSC | ≤ 0.2
33 | VHVS | ≤ 0.2
34 | VLGD | ≤ 0.2
35 | MESV | ≤ 0.2
36 | RIQM | 0.32
37 | DKQV | ≤ 0.2
38 | RMDH | ≤ 0.2
39 | TFDM | ≤ 0.2
40 | CCIR | ≤ 0.2
41 | SSLI | ≤ 0.2
42 | MVRS | ≤ 0.2
43 | KDAS | ≤ 0.2
44 | EYNA | ≤ 0.2
45 | MVWS | ≤ 0.2
46 | MPLS | ≤ 0.2
47 | SAES | ≤ 0.2
48 | NFTH | ≤ 0.2

Row | Variant | one-hybrid fitness for binding parS DNA
49 | YPHT | ≤ 0.2
50 | CSFT | ≤ 0.2
51 | LLRP | ≤ 0.2
52 | EVKP | ≤ 0.2
53 | AADW | ≤ 0.2
54 | YGPY | ≤ 0.2
55 | RDAL | ≤ 0.2
56 | RRPT | 0.761
57 | STNF | ≤ 0.2
58 | MFST | ≤ 0.2
59 | ITME | ≤ 0.2
60 | ACTI | ≤ 0.2
61 | NAWR | ≤ 0.2
62 | CGKT | ≤ 0.2
63 | YGLW | ≤ 0.2
64 | CNCT | ≤ 0.2
65 | QMAA | ≤ 0.2
66 | ALAK | ≤ 0.2
67 | GAQH | ≤ 0.2
68 | CESS | ≤ 0.2
69 | WSYN | ≤ 0.2
70 | KVSG | ≤ 0.2
71 | LTLA | ≤ 0.2
72 | MKMS | ≤ 0.2

Row | Variant | one-hybrid fitness for binding parS DNA
73 | FVNV | ≤ 0.2
74 | ELNY | ≤ 0.2
75 | TQND | ≤ 0.2
76 | ATHK | ≤ 0.2
77 | SPCI | ≤ 0.2
78 | IWSR | ≤ 0.2
79 | GYDT | ≤ 0.2
80 | PAPP | ≤ 0.2
81 | CQLT | ≤ 0.2
82 | VPGC | ≤ 0.2
83 | NSLD | ≤ 0.2
84 | VWGI | ≤ 0.2
85 | NHHC | ≤ 0.2
86 | HNCF | ≤ 0.2
87 | AMRN | ≤ 0.2
88 | YHIS | ≤ 0.2
89 | GMFR | ≤ 0.2
90 | QYLM | ≤ 0.2
91 | CMTA | ≤ 0.2
92 | EHTM | ≤ 0.2
93 | GQVV | ≤ 0.2
94 | NPYS | ≤ 0.2
95 | HARI | ≤ 0.2
96 | PPDV | ≤ 0.2

Row | Variant | one-hybrid fitness for binding parS DNA
97 | RPST | ≤ 0.2
98 | TYSG | ≤ 0.2
99 | VDTC | ≤ 0.2
100 | DDTC | ≤ 0.2
101 | KRNR | ≤ 0.2
102 | VITR | ≤ 0.2
103 | PKMQ | ≤ 0.2
104 | YTQF | ≤ 0.2
105 | ICAR | ≤ 0.2
106 | VMYE | ≤ 0.2
107 | QQEF | ≤ 0.2
108 | NECG | ≤ 0.2
109 | NLHL | ≤ 0.2
110 | MNMY | ≤ 0.2
111 | SHTI | ≤ 0.2
112 | VSGQ | ≤ 0.2
113 | RCDV | ≤ 0.2
114 | TEST | ≤ 0.2
115 | EHHI | ≤ 0.2
116 | KHTT | ≤ 0.2
117 | ANDG | ≤ 0.2
118 | LPGV | ≤ 0.2
119 | SMPI | ≤ 0.2
120 | DGPG | ≤ 0.2

Row | Variant | one-hybrid fitness for binding parS DNA
121 | REPW | ≤ 0.2
122 | PARR | ≤ 0.2
123 | RVRA | 0.689
124 | IKGW | ≤ 0.2
125 | MGLG | ≤ 0.2
126 | CSLD | ≤ 0.2
127 | QMHT | ≤ 0.2
128 | VELS | ≤ 0.2
129 | MTDP | ≤ 0.2
130 | GHGC | ≤ 0.2
131 | SHLG | ≤ 0.2
132 | MCHV | ≤ 0.2
133 | IAEG | ≤ 0.2
134 | LTVL | ≤ 0.2
135 | TFLC | ≤ 0.2
136 | PFKH | ≤ 0.2
137 | RDRA | ≤ 0.2
138 | PWFR | ≤ 0.2
139 | HYNK | ≤ 0.2
140 | RLAR | ≤ 0.2
141 | LIRI | ≤ 0.2
142 | QPDT | ≤ 0.2
143 | WLCS | ≤ 0.2
144 | QMTG | ≤ 0.2

Row | Variant | one-hybrid fitness for binding parS DNA
145 | GPGK | ≤ 0.2
146 | MKFG | ≤ 0.2
147 | RQAC | 0.947
148 | SRDN | ≤ 0.2
149 | YITG | ≤ 0.2
150 | ERRC | ≤ 0.2
151 | QTFQ | ≤ 0.2
152 | RGYN | ≤ 0.2
153 | VGLY | ≤ 0.2
154 | THDW | ≤ 0.2
155 | PYKR | ≤ 0.2
156 | TYRN | ≤ 0.2
157 | VKTY | ≤ 0.2
158 | PCRY | ≤ 0.2
159 | RTPT | 0.558
160 | HVAI | ≤ 0.2
161 | ESLH | ≤ 0.2
162 | VDAC | ≤ 0.2
163 | ESWS | ≤ 0.2
164 | QACS | ≤ 0.2
165 | ICFG | ≤ 0.2
166 | PTRA | ≤ 0.2
167 | APCR | ≤ 0.2
168 | RYTL | ≤ 0.2

Row | Variant | one-hybrid fitness for binding parS DNA
169 | VRHC | ≤ 0.2
170 | YHVR | ≤ 0.2
171 | VNPL | ≤ 0.2
172 | NNTD | ≤ 0.2
173 | MTPS | ≤ 0.2
174 | RDPL | ≤ 0.2
175 | YGCG | ≤ 0.2
176 | PTLS | ≤ 0.2
177 | TARW | ≤ 0.2
178 | RDQA | ≤ 0.2
179 | DKNL | ≤ 0.2
180 | YHNQ | ≤ 0.2
181 | QMRA | ≤ 0.2
182 | RCMP | 0.232
183 | YCLV | ≤ 0.2
184 | HRQC | 0.257
185 | CVTK | ≤ 0.2
186 | GSSY | ≤ 0.2
187 | YEQT | ≤ 0.2
188 | PKTV | ≤ 0.2
189 | KTLW | ≤ 0.2
190 | KEAS | ≤ 0.2
191 | QVPL | ≤ 0.2
192 | DNAT | ≤ 0.2

Row | Variant | one-hybrid fitness for binding parS DNA
193 | AHYA | ≤ 0.2
194 | AHYR | ≤ 0.2
195 | MSDR | ≤ 0.2
196 | RYPA | 0.212
197 | NKGV | ≤ 0.2
198 | NLYS | ≤ 0.2
199 | KDQT | ≤ 0.2
200 | PCNE | ≤ 0.2
201 | DSWN | ≤ 0.2
202 | KYNE | ≤ 0.2
203 | PVME | ≤ 0.2
204 | GRMK | ≤ 0.2
205 | GCWL | ≤ 0.2
206 | IRHI | ≤ 0.2
207 | FRCN | ≤ 0.2
208 | YECR | ≤ 0.2
209 | VNMN | ≤ 0.2
210 | KVNN | ≤ 0.2
211 | NFLI | ≤ 0.2
212 | ARIV | ≤ 0.2
213 | QLYL | ≤ 0.2
214 | RIFF | 0.297
215 | RIHC | 0.977
216 | SQDA | ≤ 0.2

Row | Variant | one-hybrid fitness for binding parS DNA
217 | PGHG | ≤ 0.2
218 | PMVY | ≤ 0.2
219 | QHAS | ≤ 0.2
220 | MFTG | ≤ 0.2
221 | KLRG | ≤ 0.2
222 | CQDR | ≤ 0.2
223 | PKGV | ≤ 0.2
224 | RNIE | ≤ 0.2
225 | ARKE | ≤ 0.2
226 | ILVT | ≤ 0.2
227 | HFTR | ≤ 0.2
228 | NENG | ≤ 0.2
229 | ARLE | ≤ 0.2
230 | NEIG | ≤ 0.2
231 | AAND | ≤ 0.2
232 | MMNT | ≤ 0.2
233 | LVRF | ≤ 0.2
234 | IMYR | ≤ 0.2
235 | IFES | ≤ 0.2
236 | QTCW | ≤ 0.2
237 | PFYL | ≤ 0.2
238 | DFTW | ≤ 0.2
239 | IRRH | ≤ 0.2
240 | KLFV | ≤ 0.2

Row | Variant | one-hybrid fitness for binding parS DNA
241 | PSLK | ≤ 0.2
242 | QVRT | ≤ 0.2
243 | YPRV | ≤ 0.2
244 | NLRY | ≤ 0.2
245 | NPRG | ≤ 0.2
246 | TSHY | ≤ 0.2
247 | VSTT | ≤ 0.2
248 | VVFM | ≤ 0.2
249 | GPKI | ≤ 0.2
250 | QSTC | ≤ 0.2
251 | YIGC | ≤ 0.2
252 | RRMN | 0.4
253 | PLEP | ≤ 0.2
254 | SEYG | ≤ 0.2
255 | QAVG | ≤ 0.2
256 | TRCW | ≤ 0.2
257 | ELKL | ≤ 0.2
258 | VVKK | 0.226
259 | PGGG | ≤ 0.2
260 | CMSL | ≤ 0.2
261 | PQSN | ≤ 0.2
262 | TSSN | ≤ 0.2
263 | GSHS | ≤ 0.2
264 | FWIS | ≤ 0.2

Row | Variant | one-hybrid fitness for binding parS DNA
265 | REGM | ≤ 0.2
266 | LDCE | ≤ 0.2
267 | MGAY | ≤ 0.2
268 | GSTG | ≤ 0.2
269 | YNSG | ≤ 0.2
270 | EGTG | ≤ 0.2
271 | QYKL | ≤ 0.2
272 | FACR | ≤ 0.2
273 | IFHT | ≤ 0.2
274 | GPAP | ≤ 0.2
275 | MAWG | ≤ 0.2
276 | RQRP | ≤ 0.2
277 | CLGI | ≤ 0.2
278 | QQHE | ≤ 0.2
279 | TLYG | ≤ 0.2
280 | AQWR | ≤ 0.2
281 | CRRD | ≤ 0.2
282 | EMWC | ≤ 0.2
283 | HMIF | ≤ 0.2
284 | HWKG | ≤ 0.2
285 | GRVV | ≤ 0.2
286 | QARL | ≤ 0.2
287 | AGSR | ≤ 0.2
288 | ASNM | ≤ 0.2

Row | Variant | one-hybrid fitness for binding parS DNA
289 | RKHM | 0.21
290 | CMQG | ≤ 0.2
291 | NAPM | ≤ 0.2
292 | FWEW | ≤ 0.2
293 | TMYV | ≤ 0.2
294 | QYKT | ≤ 0.2
295 | RVWF | 0.25
296 | VIIC | ≤ 0.2
297 | TSPP | ≤ 0.2
298 | QTQI | ≤ 0.2
299 | QCWS | ≤ 0.2
300 | CYMQ | ≤ 0.2
301 | YLRF | ≤ 0.2
302 | RTQC | 0.974
303 | QTDF | ≤ 0.2
304 | PAFG | ≤ 0.2
305 | NVFR | ≤ 0.2
306 | HNSK | ≤ 0.2
